Reference: PMC6919601, “Identification of Plasmodium dipeptidyl aminopeptidase allosteric inhibitors by high throughput screening” (PLoS ONE, 2019)
Where “and” joins values, the source holds several entries; their conditions need not be identical. Equal entries are not always repeated. Among all 110,000 compounds or so, about 230 (0.21%) showed an effect of 50% or more. Some of the results follow.

The compounds below were run against DPAP1 (Plasmodium falciparum, UniProt Q8IIJ9) (assay: primary screen, percent inhibition; read by cleavage of a fluorogenic dipeptide substrate; higher = more effect of the substance).
Sequence of DPAP1 (Q8IIJ9 whole entry, looked up): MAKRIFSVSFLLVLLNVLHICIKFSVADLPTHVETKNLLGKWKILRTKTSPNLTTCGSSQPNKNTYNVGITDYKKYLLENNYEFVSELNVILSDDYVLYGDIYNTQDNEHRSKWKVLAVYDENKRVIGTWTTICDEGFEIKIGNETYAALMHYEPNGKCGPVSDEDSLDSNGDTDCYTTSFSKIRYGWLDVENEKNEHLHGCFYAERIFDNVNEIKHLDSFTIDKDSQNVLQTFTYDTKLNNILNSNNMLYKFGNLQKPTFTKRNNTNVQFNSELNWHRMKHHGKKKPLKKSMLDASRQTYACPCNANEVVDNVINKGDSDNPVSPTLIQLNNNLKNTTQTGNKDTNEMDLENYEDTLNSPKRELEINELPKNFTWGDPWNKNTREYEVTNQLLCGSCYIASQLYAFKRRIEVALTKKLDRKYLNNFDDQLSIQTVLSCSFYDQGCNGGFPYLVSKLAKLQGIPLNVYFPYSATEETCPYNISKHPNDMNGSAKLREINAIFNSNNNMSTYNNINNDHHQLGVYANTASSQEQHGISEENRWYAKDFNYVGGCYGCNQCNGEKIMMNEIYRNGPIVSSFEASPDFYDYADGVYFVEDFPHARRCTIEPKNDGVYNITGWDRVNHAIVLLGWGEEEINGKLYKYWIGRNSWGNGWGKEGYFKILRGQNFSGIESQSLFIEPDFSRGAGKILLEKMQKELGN
Parameters: species or system P. falciparum D10 trophozoite lysates; single well
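Note: 30 min substrate incubation versus DMSO and 10 µM JCP410 controls.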

Point of comparison: `CN(C)c1cnn(C23CC4CC(CC(C4)C2C(=O)O)C3)c(=O)c1Cl` (stereo not shown), “% Inhibition @ 10 uM” value 1.15%. Against it:
- CC1=C(c2ccc(C)cc2)S(=O)(=O)N=C1NCCCN1CCC(N2CCCCC2)CC1 — lower, -1.08%
- CCOc1ccc2nc(N3CCCCC3)sc2c1 — lower, -0.256%
- Cc1nn(CC(=O)NCC2CCCO2)c(=O)c2c1sc1ccccc12 (stereo not shown) — lower, -5.61%
- Cc1ccc(-n2nc(C)c3c(C)c(CCC(=O)NC(C)C)c(C)nc32)cc1C — lower, 0.953%
- O=CN1CCN(Cc2c(F)cccc2Cl)CC1 — higher, 7.28%
- CCn1c(=O)sc2cc(NC(C)=O)ccc21 — lower, -1.05%
- COc1ccc(N2CCN(Cc3ccc(OC)c(O)c3)CC2)cc1 — higher, 4.73%
- CC(=O)NS(=O)(=O)c1ccc(NC(=O)c2ccc(C)c(C)c2)cc1 — lower, -3.39%
- COc1cc2c(cc1OC)CN(Cc1ccc([N+](=O)[O-])cc1)CC2 — higher, 1.38%
- Cc1cc(NS(=O)(=O)c2ccc(NC(=O)COc3cccc(C(C)C)c3)cc2)no1 — lower, -13.6%
- O=C1C2C3C=CC(CNc4ccc([N+](=O)[O-])cn4)(O3)C2C(=O)N1c1ccccc1 (stereo not shown) — lower, -1.74%
- Cn1c(=O)c2c(ncn2CC(=O)Nc2ccc(OC(F)(F)F)cc2)n(C)c1=O — lower, -0.0619%
- CC(C)CNC(=O)Cn1cnc2c1c(=O)n(C)c(=O)n2C — lower, -2.73%
- O=C(Nc1sc2c(c1C(=O)NCc1cccnc1)CCCC2)c1ccco1 — higher, 3.91%
- COc1ccc(-c2nc3scc(CCNC(=O)c4cc(OC)c(OC)c(OC)c4)n3n2)cc1 — higher, 5.49%
- O=C(COc1ccc(Br)cc1)NCCc1c[nH]c2ccccc12 — higher, 1.63%
- Nc1cccc(C(=O)Nc2ccccc2Cl)c1 — higher, 5.64%
- COC(=O)/C(C#N)=C/c1c(Oc2cc(C)cc(C)c2)nc2ccccn2c1=O — higher, 2%
- CC(=O)c1cc2c(cc1NC(=O)CCCC(=O)O)OCO2 — lower, 0.983%
- COc1cc(C(=O)Nc2nc(-c3ccc(C)cc3)cs2)c(Br)c(OC)c1OC — higher, 2.17%
- c1ccc2[nH]c(SCCSc3nc4ccccc4[nH]3)nc2c1 — lower, -6.71%
- Nc1c(C(=O)Nc2ccccn2)cnn1-c1ccccc1 — lower, -3.25%
- Cc1ccc(C(=O)Nc2ccc(N(C)C)cc2)cc1C — lower, -2.74%
- CN(CCNC(=O)CCC(=O)N1Cc2ccccc2Oc2ncccc21)C1CCCCC1 — lower, 0.275%
- Cc1ccccc1Cn1c(=O)n(CCC(=O)NCCc2ccc(Cl)cc2)c(=O)c2sccc21 — higher, 1.23%
- CC(=O)c1ccc(N2CCN(Cc3c(C)[nH]c4ccccc34)CC2)cc1 — higher, 1.87%
- Cn1cnnc1SCC(=O)c1ccc2c(c1)OCO2 — higher, 5.38%
- COc1ccc(C2NC(C(=O)O)CS2)cc1COc1cc(C)c(Cl)c(C)c1 (stereo not shown) — higher, 9.35%
- CC1=C(C(=O)OC2CCCCCC2)C(c2coc3ccccc3c2=O)C2=C(O)CCCC2=N1 (stereo not shown) — higher, 2.25%
- CC(C)(C)Nc1nc(NC2CCCCC2)nc(N2CCOCC2)n1 — lower, -0.591%
- Cc1cc(-c2nc(-c3ccncc3)no2)c2ccccc2n1 — higher, 1.32%
- Cc1sc2nc(SCCCC(=O)Nc3ccc(S(N)(=O)=O)cc3)nc(O)c2c1C — lower, -1.64%
- CC1Oc2ccccc2C=C1/C=C(\C#N)C(=O)NC1CCS(=O)(=O)C1 (stereo not shown) — lower, 0.408%
- CCOc1ccc(C2CC(=O)c3c([nH]c(C(=O)O)c3C)C2)cc1 (stereo not shown) — higher, 2.35%
- Cc1ccc(CNC(=O)CN(c2ccc(C)c(C)c2)S(C)(=O)=O)cc1 — higher, 7.38%
- CCC[C@H](N[C@H](C(=O)NCC#N)c1ccc(-c2ccc(S(C)(=O)=O)cc2)cc1)C(=O)NC1(C#N)CC1 — lower, -6.46%
- CCNC(=O)c1cc2c(=O)n3cccc(C)c3nc2n(Cc2cccnc2)c1=N — lower, -1.47%
- CCc1nc(SC)ncc1C(=O)NCCN1CCN(Cc2ccccc2)CC1 — lower, -4.27%
- COc1ccc(-c2nc(S)c3c(n2)Oc2ccccc2C3)cc1 — higher, 4.16%
- CC(C(=O)O)n1c(C(=O)O)c(C=O)c2ccccc21 (stereo not shown) — lower, -3.53%
- Fc1ccc(C2CCCNc3cc(F)ccc32)cc1 (stereo not shown) — lower, -4.75%
- C=CCNC(=O)C(=O)NCCc1ccccc1 — higher, 6.08%
- O=C(CCS(=O)(=O)c1ccc2ccccc2c1)N1CCOCC1 — lower, 0.658%
- Cc1c(C)n(CC(O)CNCCc2ccccc2)c2ccccc12 (stereo not shown) — higher, 5.31%
- COc1ccc(N2C(=O)CC(=O)NC2=S)cc1 — lower, 0.962%
- Cc1ccc(CNS(=O)(=O)c2c(C)nc(O)nc2O)cc1 — lower, -2.61%
- Cc1ccc(/C=C2\N=C(c3ccc(-c4ccccc4)cc3)OC2=O)o1 — higher, 2.14%
- CCc1ccc(CNCc2c(C(=O)O)n(Cc3ccc(OC)cc3)c3cc(OC)ccc23)cc1 — higher, 4.38%
- C=CCOc1ccc(C(=O)C2=C(O)C(=O)N(CCCN3CCOCC3)C2c2ccccc2F)c(C)c1 (stereo not shown) — higher, 1.52%
- COC(=O)CC1=C(C)C(=O)CC2C(C)(C)CCC[C@]12C (stereo partly shown) — higher, 3.82%
- COc1ccc(N(CC(=O)N2CCN(C)CC2)S(C)(=O)=O)c(OC)c1 — higher, 3.35%
- CCC(C)n1c(SCC(=O)N2CCOCC2)nc2c1c(=O)n(C)c(=O)n2C (stereo not shown) — higher, 5.49%
- Cc1ccc(Oc2cc(-n3nc(C)c(C(N)=O)c3N)ncn2)cc1 — lower, -0.795%
- O=C(Cn1nnc(-c2ccc3c(c2)OCO3)n1)NCc1ccc(F)cc1 — lower, -3.75%
- Cn1c(-c2ccccc2)cn2cc(-c3cccc(Cl)c3)nc12 — lower, -2.91%
- CCOC(=O)C1=C(C)N=C(C)/C(=C(/O)OCC)C1c1ccc(Cl)cc1 (stereo not shown) — lower, -2.87%
- Nc1ccc(S(=O)(=O)Nc2ccc(Nc3ccccc3)cc2)cc1 — higher, 4.08%
- COc1ccc(-c2cc(C(=O)NC(C)C)c3ccccc3n2)cc1OC — higher, 9.41%
- CC1CCN(S(=O)(=O)c2ccc3nc(-c4ccccn4)cc(C(=O)NC4CCCC4)c3c2)CC1 — lower, -4.53%
- CC(C)OCCCNC(=O)c1ccc(CSc2nc3ccncc3n2Cc2ccccc2)cc1 — higher, 1.41%
- CC1=C(C(=O)Nc2ccccc2)C(c2ccccc2Br)NC(=O)N1 (stereo not shown) — higher, 12.8%
- CCCN1CCN(CCCNC(=O)C2CCN(S(C)(=O)=O)CC2)CC1 — higher, 3.66%
- Cc1ccc(S(=O)(=O)NCC(c2ccccc2)N(C)C)cc1 (stereo not shown) — higher, 2.73%
- CCOc1ccc2nc(N3CCCC(C(=O)NCCOC)C3)sc2c1 (stereo not shown) — higher, 1.8%
- CCC(C)NCc1c(C(=O)O)n(Cc2ccccc2C)c2ccccc12 (stereo not shown) — lower, -1.44%
- CCOc1ccc(NC(=O)c2ccccc2F)cc1 — higher, 18.3%
- Cc1onc(-c2c(F)cccc2Cl)c1C(=O)N1CCN(C23CC4CC(CC(C4)C2)C3)CC1 — lower, -4.49%
- c1ccc2c(c1)ncn2CCN1CCOCC1 — lower, -1.56%
- Cn1c(C(=O)NC2CCCCCC2)cc2oc3ccccc3c21 — lower, -0.281%
- COc1ccc(CC(=O)N(Cc2nc(-c3ccccc3)no2)C2CCCCC2)cc1OC — lower, -2.99%
- COc1ccc(OCc2nn3c(-c4ccccc4OC)nnc3s2)cc1 — lower, -0.45%
- Cc1nc2c(C)cccc2c(O)c1CC=C(Cl)Cl — lower, -1.32%
- Cc1ccc(S(=O)Cc2ccc(C(=O)NCc3ccc(Cl)cc3)o2)cc1 (stereo not shown) — lower, 0.458%
- Cc1cc(C)nc(/N=C(\N)Nc2ccc(O)cc2)n1 — lower, -0.46%
- COc1ccc(Br)cc1CNC(=O)CCCc1cn(C)c2ccccc12 — higher, 3.66%
- Cc1oc(-c2ccc3c(c2)OCCO3)cc1C(=O)NC(Cc1cc2ccccc2[nH]1)C(=O)O (stereo not shown) — higher, 17%
- CCn1cc(C(=O)O)c(=O)c2cc(F)c(NCC(C)O)c(F)c21 (stereo not shown) — lower, -9.37%
- O=S(=O)(c1ccc2c(c1)Cc1ccccc1-2)N1CCOCC1 — lower, -1.5%
- CC(C)CSc1nnc2sc3ccccc3n12 — lower, -5.26%
- COc1cccc(C2NC(C(=O)O)CS2)c1O (stereo not shown) — lower, -2.86%
- CCc1nnc(NC(=O)c2ccc(Cc3ccccc3)cc2)s1 — lower, -0.053%
- COc1cc(OC)c(OC)cc1/C=C1\N=C(c2ccco2)OC1=O — lower, -6.77%
- c1ccc2c(c1)CCC(NCCc1c[nH]c3ccccc13)C2 (stereo not shown) — higher, 1.88%
- COC(=O)c1sc2nc(C)cc(C(F)(F)F)c2c1N — lower, -5.61%
- Cc1cc(C)n2nc(Cc3ccccc3)c(-c3ccccc3)c2n1 — higher, 1.4%
- CCOc1ccc(C2NCCc3cc(OCC)c(OCC)cc32)cc1 (stereo not shown) — higher, 3.29%
- O=C(CN1CCN(Cc2ccc(F)cc2Cl)C1=O)NCc1ccccc1Cl — lower, -2.12%
- COc1ccc(C2CC(=O)C3=C(C2)NC(=O)CC3c2ccccc2C(F)(F)F)cc1OC (stereo not shown) — higher, 1.39%
- N=C(N)SCc1csc2c1CCCC2 — higher, 2.3%
- OCCN1CCN(CCOc2ccccc2-c2ccccc2)CC1 — lower, -16.5%
- CSc1nc(-c2ccccc2)nn1S(=O)(=O)c1ccccc1 — lower, 0.511%
- CCOC(=O)N1CCC(NC(=O)CS(=O)(=O)Cc2nc(-c3ccc(C)cc3)oc2C)CC1 — lower, -1.89%
- COc1ccc(CN(C)Cc2ccccc2)cc1 — higher, 1.62%
- CCc1nnc(NC(=O)C(C(C)CC)N2C(=O)c3ccccc3C2=O)s1 (stereo not shown) — lower, -4.74%
- Cc1ccc2nc(Nc3nc(O)cc(-c4ccccc4)n3)nc(C)c2c1 — higher, 2.94%
- O=C(Nc1ccc(F)c(Cl)c1)c1ccccc1NC(=O)C1CCCCC1C(=O)O (stereo not shown) — higher, 3.91%
- C=CCn1c(SCC(=O)NC(N)=O)nc2sc(-c3ccccc3)cc2c1=O — lower, -2.88%
- CCC1CCc2nc3sc(C(=O)Nc4ccc(OC)cc4OC)c(N)c3cc2C1 (stereo not shown) — lower, -7.14%

`Cc1cc(NC(=O)c2ccc(NC(=O)C(C)(C)C)cc2)no1` was tested, and the “% Inhibition @ 10 uM” value was 4.7% and 3.53%.
